Consider 58 compounds from the supplement of paper PMC9446081.

Each structure is given as a SMILES string. About 220 (0.56%) of roughly 39,000 compounds showed activity. Some of the results follow.
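Further: static incubation at 37 °C against the wild-type strain, values averaged over two biological replicates.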

The test system of the assay is Escherichia coli K-12 BW25113. In words: relative growth (OD600 normalised to plate interquartile mean) (fraction); higher = less growth inhibition, active = 0.2 or less. The note with it: 50 µM; LB; incubation time: overnight (16-24 h).
For `COc1ccc(S(=O)(=O)Nc2ccc3c(c2)C(=O)N([C@@H](C)CO)C[C@@H](C)[C@H](CN(C)S(=O)(=O)c2cn(C)cn2)OCCCC[C@H](C)O3)cc1`, the relative growth was inactive: 0.989.

Take `COc1cccc(C#Cc2ccc3c(c2)O[C@@H](CN(C)C(=O)CN2CCOCC2)[C@H](C)CN([C@H](C)CO)S3(=O)=O)c1`: the relative growth is inactive: 0.949.

Turning to `O=C(c1ccc(Cl)cc1)c1coc2c1cc(O)c1ccccc12`, the relative growth was inactive: 0.998.

As for `C[C@@H]1CCCCO[C@H](CN(C)S(=O)(=O)c2ccc(F)cc2)[C@H](C)CN([C@H](C)CO)C(=O)c2cc(NS(C)(=O)=O)ccc2O1`, the relative growth is inactive: 1.03. Then `COc1ccc(S(=O)(=O)N(C)C[C@@H]2Oc3ccc(NS(=O)(=O)c4ccc(C)cc4)cc3CC(=O)N([C@@H](C)CO)C[C@@H]2C)cc1`, with inactive: 1.01; and `C[C@H]1CN([C@@H](C)CO)C(=O)Cc2cc(NC(=O)Cn3cnnn3)ccc2O[C@@H]1CN(C)Cc1ccc(C(F)(F)F)cc1`, with inactive: 0.919.

As for `O=C(CCCCCNC(=O)OCc1ccc(CO[C@@H]2C[C@H](c3ccc(C(F)(F)F)cc3)C=C(C(=O)N3CCN(Cc4ccc5c(c4)OCO5)CC3)O2)cc1)NO`, the relative growth is inactive: 1.03. `COc1ccc(NC(=O)N(C)C[C@H]2Oc3ccc(NS(=O)(=O)c4cn(C)cn4)cc3C(=O)N([C@@H](C)CO)C[C@@H]2C)cc1`: the relative growth was inactive: 0.978. On to `C[C@H]1CN([C@@H](C)CO)C(=O)c2cccc(NC(=O)c3cnccn3)c2O[C@@H]1CN(C)Cc1ccc2c(c1)OCO2`, for which the relative growth was inactive: 1.02.

For `C[C@@H]1CN([C@@H](C)CO)C(=O)c2cc(NS(=O)(=O)c3ccc(Cl)cc3)ccc2O[C@@H](C)CCCCO[C@H]1CN(C)S(=O)(=O)c1ccccc1`, the relative growth was inactive: 1.03. `CO[C@@H]1[C@H](O)[C@@H](CO)O[C@H]1n1ccc(N)nc1=O`: the relative growth is inactive: 0.99. With `COc1cc(/C=C/C(=O)OC[C@H]2O[C@@H](O[C@@H]3OC=C[C@H]4[C@H](O)[C@@H]5O[C@]5(CO)[C@@H]34)[C@H](O)[C@@H](O)[C@@H]2O)ccc1O`, the relative growth was inactive: 0.998. Next, `CC12CC3(C)CC(C)(C1)CC(C/N=C/c1ccc(O)cc1)(C2)C3`: inactive: 0.949.

For `C[C@@H]1CN([C@@H](C)CO)C(=O)c2cc(NC(=O)NC3CCCCC3)ccc2O[C@@H](C)CCCCO[C@@H]1CN(C)Cc1ccc(C(F)(F)F)cc1`, the relative growth was inactive: 1.02. On to `C[C@H]1CN([C@@H](C)CO)C(=O)Cc2cc(NC(=O)Cc3cn(C)c4ccccc34)ccc2O[C@@H]1CN(C)Cc1ccc(-c2ccccc2)cc1`, for which the relative growth was inactive: 0.979. Next, `CCCC(=O)Nc1nc2[nH]c(C)cc(=O)n2n1`: inactive: 0.992. Then `C[C@H]1CCCCO[C@@H](CN(C)Cc2ccc(C(=O)O)cc2)[C@@H](C)CN([C@@H](C)CO)C(=O)c2cc(NC(=O)Nc3ccc4c(c3)OCO4)ccc2O1`, with inactive: 1.04; and `Cc1ccc(S(=O)(=O)Nc2ccc3c(c2)C(=O)N([C@H](C)CO)C[C@H](C)[C@@H](CN(C)S(C)(=O)=O)OCCCC[C@H](C)O3)cc1`, with inactive: 1.01. For `Cc1noc(C)c1NC(=O)N(C)C[C@@H]1Oc2ccc(NS(=O)(=O)c3cn(C)cn3)cc2C(=O)N([C@@H](C)CO)C[C@@H]1C`, the relative growth was inactive: 0.908. Next, `C[C@H](CO)N1C[C@H](C)[C@@H](CN(C)Cc2ccncc2)OCCCC[C@H](C)Oc2ccc(NC(=O)NC3CCCCC3)cc2C1=O`: inactive: 0.937; `C[C@@H]1CCCCO[C@H](CN(C)Cc2ccc(C(F)(F)F)cc2)[C@@H](C)CN([C@H](C)CO)C(=O)c2cc(NC(=O)C3CCCCC3)ccc2O1`: inactive: 0.999; `Cc1noc(C)c1S(=O)(=O)N(C)C[C@H]1Oc2ccc(NC(=O)CCCN(C)C)cc2C(=O)N([C@H](C)CO)C[C@H]1C`: inactive: 1.02. Then `COc1ccc2c3c(n(c2c1)C)[C@H](CO)N(C[C@]13CCN(CC1)C(=O)c1ccncc1)C(=O)C1CCOCC1`, with inactive: 0.988. Next, `C=C(c1ccc(C(=O)O)cc1)c1cc2c(cc1C)C(C)(C)CCC2(C)C`: inactive: 0.759. Regarding `CCNC(=O)C[C@H]1CC[C@@H]2[C@@H](COc3ccc(NS(=O)(=O)c4ccccc4C)cc3C(=O)N2C)O1`, the relative growth is inactive: 0.971.

In the case of `C[C@@H]1CN([C@@H](C)CO)C(=O)c2cc(NS(=O)(=O)c3ccccc3)ccc2O[C@@H](C)CCCCO[C@H]1CN(C)S(=O)(=O)c1cn(C)cn1`, the relative growth is inactive: 1. On to `C[C@@H]1CN([C@H](C)CO)C(=O)Cc2cc(NC(=O)NC3CCCCC3)ccc2O[C@@H]1CN(C)Cc1ccc(-c2ccccc2)cc1`, for which the relative growth was inactive: 1.01.

In the case of `COc1cc2ncnc(Nc3ccc(F)c(Cl)c3)c2cc1OCCCN1CCOCC1`, the relative growth was inactive: 0.93. Next, `Cc1ccc(S(=O)(=O)N(C)C[C@@H]2Oc3ccc(NC(=O)c4ccncc4)cc3CC(=O)N([C@H](C)CO)C[C@@H]2C)cc1`: inactive: 0.98.

For the compound `Cc1noc(C)c1S(=O)(=O)NC(C)C`, the relative growth is inactive: 0.996. Then `C[C@@H]1CCCCO[C@@H](CN(C)C(=O)Nc2cccc3ccccc23)[C@@H](C)CN([C@@H](C)CO)C(=O)c2cc(N(C)C)ccc2O1`, with inactive: 0.912. Next, `O=C(N[C@@H]1CC[C@H](CCn2cc(C3(O)CCCC3)nn2)O[C@@H]1CO)C1CCOCC1`: inactive: 0.982; `COc1ccc(NC(=O)N(C)C[C@@H]2Oc3ccc(NS(=O)(=O)c4c(C)noc4C)cc3C(=O)N([C@@H](C)CO)C[C@H]2C)cc1`: inactive: 0.984; `CCCCc1nn(-c2ccccc2C(F)(F)F)c(=O)n1Cc1ccc(-c2ccccc2S(=O)(=O)NC(=O)c2sccc2C)cc1`: inactive: 0.961.

Take `Cc1ccc(S(=O)(=O)Nc2ccc3c(c2)CC(=O)N([C@H](C)CO)C[C@H](C)[C@H](CN(C)C(=O)NC(C)C)O3)cc1`: the relative growth was inactive: 1. As to `C[C@H]1CN([C@@H](C)CO)C(=O)c2cccc(NC(=O)Nc3ccc4c(c3)OCO4)c2O[C@H]1CN(C)S(C)(=O)=O`, the relative growth was inactive: 0.99.

Regarding `CC(C)CC#Cc1ccc2c(c1)O[C@@H](CN(C)C(=O)Cc1ccccn1)[C@@H](C)CN([C@H](C)CO)S2(=O)=O`, the relative growth is inactive: 0.997. `CO[C@H](CN(C)C(=O)c1ccc2c(c1)OCO2)[C@H](C)CN([C@@H](C)CO)S(=O)(=O)c1ccc(C)cc1`: the relative growth is inactive: 0.99. On to `C[C@H](CO)N1C[C@H](C)[C@H](CN(C)Cc2ccc(C(F)(F)F)cc2)Oc2ccc(NC(=O)NC3CCCCC3)cc2CC1=O`, for which the relative growth was inactive: 1.01. Then `C[C@@H]1CN([C@H](C)CO)C(=O)c2cc(NC(=O)Nc3cccc4ccccc34)ccc2O[C@@H](C)CCCCO[C@@H]1CN(C)Cc1ccc(C(F)(F)F)cc1`, with inactive: 1.03. Then `Cc1noc(C)c1S(=O)(=O)Nc1ccc2c(c1)C(=O)N([C@H](C)CO)C[C@@H](C)[C@H](CN(C)C(=O)Nc1ccc3c(c1)OCO3)O2`, with inactive: 1; and `C[C@@H]1CN([C@H](C)CO)C(=O)c2cc(NC(=O)Cc3ccccc3)ccc2O[C@@H](C)CCCCO[C@@H]1CN(C)C(=O)C1CCCCC1`, with inactive: 1.02; and `COc1ccc([Si](C)(C)[C@@H]2[C@@H](CC(=O)N(CCO)Cc3ccccc3)O[C@]3(C(=O)N(Cc4ccc(N5CCC5=O)cc4)c4ccccc43)[C@H]2C)cc1`, with inactive: 1.01. Next, `CS(=O)(=O)N1C[C@H]2C[C@@H](F)[C@H](O)[C@@H]2C1`: inactive: 0.993; `Cc1ccc(S(=O)(=O)Nc2ccc3c(c2)C(=O)N([C@@H](C)CO)C[C@@H](C)[C@@H](CN(C)S(=O)(=O)c2ccc(C)cc2)OCCCC[C@H](C)O3)cc1`: inactive: 0.979; `C[C@@H]1CN([C@H](C)CO)C(=O)Cc2cc(NC(=O)Cn3cnnn3)ccc2O[C@@H]1CN(C)Cc1ccc(C(=O)Nc2ccccc2N)cc1`: inactive: 1.03. Turning to `Cc1ccc(S(=O)(=O)Nc2cccc3c2O[C@@H](CN(C)Cc2ccc(Cl)c(Cl)c2)[C@@H](C)CN([C@@H](C)CO)C3=O)cc1`, the relative growth was inactive: 1.05. For the compound `CC1=C(C(=O)NCCCN2CCN(c3ccc(F)cc3)CC2)C2(CCN(Cc3ccccc3)CC2)OC1=O`, the relative growth was inactive: 0.567. In the case of `C[C@H]1CN([C@@H](C)CO)C(=O)c2cc(C#Cc3ccccc3F)cnc2O[C@H]1CN(C)C(=O)Cc1cccnc1`, the relative growth was inactive: 0.997. As for `C[C@@H]1CN([C@H](C)CO)C(=O)Cc2cc(NC(=O)CCCCCC(=O)Nc3ccccc3N)ccc2O[C@H]1CN(C)Cc1ccc(Cl)c(Cl)c1`, the relative growth is inactive: 0.93. Then `C[C@H](CO)N1C[C@H](C)[C@@H](CN(C)C(=O)Nc2ccc(F)cc2)OCCCC[C@H](C)Oc2ccc(NC(=O)Nc3ccc4c(c3)OCO4)cc2C1=O`, with inactive: 1.02; and `O=C(C[C@H]1CC[C@@H]2[C@H](COC[C@@H](O)CN2S(=O)(=O)c2cccc(F)c2)O1)NCc1ccc2c(c1)OCO2`, with inactive: 1; and `C[C@H]1CN([C@@H](C)CO)C(=O)Cc2cc(NS(C)(=O)=O)ccc2O[C@H]1CN(C)S(=O)(=O)c1cccs1`, with inactive: 1.01. Then `C[C@H](CO)N1C[C@H](C)[C@H](CN(C)C(=O)Nc2ccc(F)cc2)OCCCC[C@H](C)Oc2ccc(NC(=O)Nc3ccc(C(F)(F)F)cc3)cc2C1=O`, with inactive: 1.03; and `C[C@H]1CN([C@@H](C)CO)C(=O)CCCn2cc(nn2)CO[C@H]1CN(C)C(=O)Nc1ccccc1C(F)(F)F`, with inactive: 1.

As to `Cc1noc(C)c1S(=O)(=O)Nc1ccc2c(c1)CC(=O)N([C@H](C)CO)C[C@H](C)[C@H](CN(C)S(=O)(=O)c1cccs1)O2`, the relative growth is inactive: 0.997. Next, `NC(CC(=O)O)C(=O)O` (stereo not drawn): inactive: 0.986; `COc1ccc(C#Cc2cnc3c(c2)C(=O)N([C@H](C)CO)C[C@H](C)[C@H](CN(C)C(=O)CC2CC2)O3)cc1`: inactive: 0.999.
